From patent publication US9357778B2, “N-acyl-2-(cyclo)alkypyrrolidines and piperidines useful as fungicides” (BAYER CROPSCIENCE AG, priority 2012, dated 2016)
Some of these results come from one statement about several compounds together.

What was measured:
[1] = test system: Alternaria solani; assay: In vivo preventive test on Alternaria solani (tomato); details: at a dose of 500 and 100 ppm of active ingredient, text summary of table B2
Protocol: In Vivo Preventive Test on Alternaria solani (Tomato) • Solvent: 49 parts by weight of N,N-dimethylformamide • Emulsifier: 1 part by weight of alkylarylpolyglycolether To produce a suitable preparation of active compound, 1 part by weight of active compound is mixed with the stated amounts of solvent and emulsifier, and the concentrate is diluted with water to the desired concentration. To test for preventive activity, young plants are sprayed with the preparation of active compound at the stated rate of application. One day after this treatment, the plants are inoculated with an aqueous spore suspension of Alternaria solani. The plants remain for one day in an incubation cabinet at approximately 22° C. and a relative atmospheric humidity of 100%. Then the plants are placed in an incubation cabinet at approximately 20° C. and a relative atmospheric humidity of 96%. The test is evaluated 7 days after the inoculation. 0% means an efficacy which corresponds to that of the untreated control while an efficacy of 100% means that no disease is observed.

[2] = test system: Leptosphaeria nodorum; assay: In vivo preventive test on Leptosphaeria nodorum (wheat); details: at a dose of 500 and 100 ppm of active ingredient, text summary of table D2
Protocol: In Vivo Preventive Test on Leptosphaeria nodorum (Wheat) • Solvent: 49 parts by weight of N,N-dimethylacetamide • Emulsifier: 1 part by weight of alkylaryl polyglycol ether To produce a suitable preparation of active compound, 1 part by weight of active compound or active compound combination is mixed with the stated amounts of solvent and emulsifier, and the concentrate is diluted with water to the desired concentration. To test for preventive activity, young plants are sprayed with the preparation of active compound or active compound combination at the stated rate of application. After the spray coating has been dried, the plants are sprayed with a spore suspension of Leptosphaeria nodorum. The plants remain for 48 hours in an incubation cabinet at approximately 20° C. and a relative atmospheric humidity of approximately 100%. The plants are placed in the greenhouse at a temperature of approximately 22° C. and a relative atmospheric humidity of approximately 80%. The test is evaluated 8 days after the inoculation. 0% means an efficacy which corresponds to that of the untreated control, while an efficacy of 100% means that no disease is observed.

In the case of `Cn1nc(C(F)F)c(C(=O)N2CCC[C@H]2COc2c(Cl)cc(Cl)cc2Cl)c1Cl` [CMP1, [5-chloro-3-(difluoromethyl)-1-methyl-1H-pyrazol-4-yl]{(2S)-2-[(2,4,6-trichlorophenoxy)methyl]pyrrolidin-1-yl}methanone, reference compound], the protection [1] is reported as “less than 20%” and the protection [2] is reported as “less than 60%”.

In the case of `Cn1nc(C(F)F)c(C(=O)N2CCC[C@H]2COc2c(Cl)cc(Cl)cc2Cl)c1F` [CMP2, [3-(difluoromethyl)-5-fluoro-1-methyl-1H-pyrazol-4-yl]{(2S)-2-[(2,4,6-trichlorophenoxy)methyl]pyrrolidin-1-yl}methanone], the protection [1] is reported as “less than 20%”.

In the case of `Cn1cc(C(=O)N2CCC[C@H]2COc2c(Cl)cc(Cl)cc2Cl)c(C(F)F)n1` [Compound 1.006, [3-(difluoromethyl)-1-methyl-1H-pyrazol-4-yl]{(2S)-2-[(2,4,6-trichlorophenoxy)methyl]pyrrolidin-1-yl}methanone, reference compound], the protection [1] is reported as “less than 20%” and the protection [2] is reported as “less than 60%”.

`CCCCCCC1CCCN1C(=O)c1c(C(F)F)nn(C)c1F` (centres unmarked) [Example 8] was tested, and the protection [2] was “at least 80%”.

With `Cn1nc(C(F)F)c(C(=O)N2CCCC2C2CCCCC2)c1F` (centres unmarked) [Example 11] the protection [2] was “at least 80%”.

With `Cn1cc(C(=O)N2CCCC2C23CC4CC(CC(C4)C2)C3)c(C(F)F)n1` (centres unmarked) [Example 12] the protection [1] was “at least 85%”.

`Cn1nc(C(F)F)c(C(=O)N2CCCC2CC2CCCCC2)c1F` (centres unmarked) [Example 17] was tested, and the protection [2] was “at least 80%”.

`CCCCCCC1CCCCN1C(=O)c1cn(C)nc1C(F)F` (centres unmarked) [Example 20] was tested, and the protection [1] was “at least 85%”.

In the case of `Cn1cc(C(=O)N2CCCCC2C2CCCCC2)c(C(F)F)n1` (centres unmarked) [Example 25], the protection [1] is reported as “at least 85%”.
